Hit rate of the full screen: of about 310,000 compounds, about 2,200 (0.71%) showed an effect of 50% or more. Effects have a minus sign here. Some of the results follow.
Molecular target: human ether-à-go-go-related gene (hERG) potassium channel (human, UniProt Q12809)
Assay: primary screen, population patch clamp on CHO cells stably expressing hERG

Sequence of human ether-à-go-go-related gene (hERG) potassium channel (Q12809 whole entry, looked up): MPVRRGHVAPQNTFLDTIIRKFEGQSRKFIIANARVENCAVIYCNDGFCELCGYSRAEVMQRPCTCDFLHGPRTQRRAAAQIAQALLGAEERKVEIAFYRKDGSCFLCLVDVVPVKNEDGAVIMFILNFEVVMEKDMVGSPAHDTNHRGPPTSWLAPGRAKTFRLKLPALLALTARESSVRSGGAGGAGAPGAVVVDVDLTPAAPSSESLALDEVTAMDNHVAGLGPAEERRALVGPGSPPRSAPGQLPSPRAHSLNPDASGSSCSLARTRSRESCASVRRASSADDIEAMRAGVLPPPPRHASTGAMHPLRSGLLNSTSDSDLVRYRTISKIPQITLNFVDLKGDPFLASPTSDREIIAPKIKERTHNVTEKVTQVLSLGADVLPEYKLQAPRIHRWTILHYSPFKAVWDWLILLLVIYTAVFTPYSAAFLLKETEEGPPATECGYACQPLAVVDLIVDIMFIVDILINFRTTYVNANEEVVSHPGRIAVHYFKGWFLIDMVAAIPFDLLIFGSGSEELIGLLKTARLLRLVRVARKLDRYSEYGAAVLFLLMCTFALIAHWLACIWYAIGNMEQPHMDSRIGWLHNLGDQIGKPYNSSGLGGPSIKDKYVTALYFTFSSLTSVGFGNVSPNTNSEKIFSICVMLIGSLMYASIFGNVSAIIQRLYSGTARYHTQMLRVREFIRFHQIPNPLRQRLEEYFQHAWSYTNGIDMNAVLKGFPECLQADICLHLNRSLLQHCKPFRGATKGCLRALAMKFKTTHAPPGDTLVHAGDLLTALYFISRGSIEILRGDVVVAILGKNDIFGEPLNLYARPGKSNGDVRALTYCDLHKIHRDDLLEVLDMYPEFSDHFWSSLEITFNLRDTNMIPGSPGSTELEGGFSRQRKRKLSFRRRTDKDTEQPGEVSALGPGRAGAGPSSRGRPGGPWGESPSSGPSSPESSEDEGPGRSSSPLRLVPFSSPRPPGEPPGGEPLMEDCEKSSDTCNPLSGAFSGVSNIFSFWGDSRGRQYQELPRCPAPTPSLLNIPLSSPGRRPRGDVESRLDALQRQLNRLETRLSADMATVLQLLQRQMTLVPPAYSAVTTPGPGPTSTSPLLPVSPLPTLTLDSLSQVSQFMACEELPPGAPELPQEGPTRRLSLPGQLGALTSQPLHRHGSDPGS

Going from `Clc1ccccc1CN1CCSCC1` to `CCS(=O)(=O)N1CCc2nc(-c3ccccc3)sc2C1`, the “hERG current change (%, negative = inhibition) at 1uM” value falls from 17.8% to -5.31%.

First: C=CCc1cc(S(=O)(=O)c2ccc(O)c(CC=C)c2)ccc1O
Second: Cc1cccc(/C=N/NC(=O)c2cc(Br)ccc2O)n1
The “hERG current change (%, negative = inhibition) at 1uM” value of the first is higher: 12% for the first, 10.5% for the second.

Compared with `COc1ccc(OC)c(C(O)c2coc3ccc(O)c(CN(C)C)c23)c1` (centres unmarked), `COc1ccc(NC(=S)NCC(O)c2ccccc2)c(OC)c1` (centres unmarked) is higher in “hERG current change (%, negative = inhibition) at 1uM” value: 0.349% for the first, 4.22% for the second.

Going from `CCC(=O)Nc1nnc(SCCOC)s1` to `CCc1nnc(NC(=O)Cc2ccc(OC)c(OC)c2)s1`, the “hERG current change (%, negative = inhibition) at 1uM” value rises from 3.05% to 16.2%.

Compared with `CCN(CC)c1ccc(N=Cc2ccccc2[N+](=O)[O-])cc1`, `CCN(CC)c1ccc(/C=N/n2c(C)nc3ccccc3c2=O)cc1` is lower in “hERG current change (%, negative = inhibition) at 1uM” value: 6.57% for the first, 5.43% for the second.

Going from `C/C(CC(=O)NC1C2CC3CC(C2)CC1C3)=N\NC(=O)Cc1cccs1` (centres unmarked) to `Cc1ccc(NC(=O)CS(=O)CC(=O)N(c2ccccc2F)C(C)C(=O)NC2CCCC2)cc1` (centres unmarked), the “hERG current change (%, negative = inhibition) at 1uM” value rises from 9.21% to 9.32%.

Compared with `CC(=O)c1ccc(NC(=O)c2cc(C)no2)cc1`, `CCc1noc(C)c1C(=O)Nc1ccc(F)c(F)c1` is lower in “hERG current change (%, negative = inhibition) at 1uM” value: 5.22% for the first, 2% for the second.

Going from `Cn1c(COc2ccccc2Br)nc2ccccc21` to `CCn1c(-c2ccccc2)c(C(=O)O)c2ccccc21`, the “hERG current change (%, negative = inhibition) at 1uM” value falls from 14.3% to 10.2%.

Going from `Cc1ccc(N2CCCn3c2cc(C)c(C#N)c3=O)cc1C` to `Cc1ccc(NS(=O)(=O)c2cc(C(=O)N3CCOCC3)ccc2C)cc1C`, the “hERG current change (%, negative = inhibition) at 1uM” value rises from -0.767% to 1.51%.

First: CCNC(=S)NNC(=O)c1cc(Br)cs1
Second: Cc1nc(CCNC(=O)c2ccccc2)cs1
The “hERG current change (%, negative = inhibition) at 1uM” value of the first is lower: 7.23% for the first, 21.3% for the second.

Compared with `COC(=O)c1ccccc1NC(=S)N(Cc1ccc2c(c1)OCO2)Cc1cc2cccc(C)c2[nH]c1=O`, `COC(=O)c1cccc(Nc2cc(C)nc(-c3ccccc3O)n2)c1` is lower in “hERG current change (%, negative = inhibition) at 1uM” value: 9.7% for the first, 6.28% for the second.

Compared with `CCOCCCNC(=S)NC1CC2CCC(C1)N2Cc1ccccc1` (centres unmarked), `COCCNC(=S)N1CCC(NC(=O)Nc2ccc(C)cc2)CC1` is higher in “hERG current change (%, negative = inhibition) at 1uM” value: 2.8% for the first, 9.33% for the second.

First: COc1ccc(N2C(=O)c3cccc4cccc(c34)C2=O)cc1
Second: COc1ccc(-n2c(C)cc3cc(OC(C)=O)ccc32)cc1
The “hERG current change (%, negative = inhibition) at 1uM” value of the first is higher: 16.9% for the first, 13.6% for the second.

First: O=C(/C=C/c1cccc(C(F)(F)F)c1)Nc1cccc(C(F)(F)F)c1
Second: Cc1cccc(NC(=O)Nc2cccc(F)c2)n1
The “hERG current change (%, negative = inhibition) at 1uM” value of the first is higher: 10.7% for the first, 5.52% for the second.

Going from `CCCCC(=O)N1C/C=C\C(c2ccc(OC)cc2)N(Cc2ccc(F)cc2)C(=O)[C@H]1Cc1ccccc1` (some centres unmarked) to `COc1ccc(C(OC(=O)c2ccco2)C(=O)NCc2ccc(C)cc2)cc1` (centres unmarked), the “hERG current change (%, negative = inhibition) at 1uM” value rises from 10% to 17.5%.

Going from `N=C1/C(=C\c2coc3ccc(O)cc3c2=O)C(=O)N=C2SC=CN12` to `COc1ccc(/C=C2/SC(c3ccc(C)cc3)=NC2=O)cc1OC`, the “hERG current change (%, negative = inhibition) at 1uM” value rises from 7.72% to 9.52%.

First: Cc1ccc([N+](=O)[O-])c2c1C(N1CCCC1)C(C)(C)O2 (centres unmarked)
Second: CCn1c(=S)[nH]c2cc(S(=O)(=O)N3CCCCC3)ccc21
The “hERG current change (%, negative = inhibition) at 1uM” value of the first is lower: 7.76% for the first, 10.9% for the second.

Going from `CCC(C(=O)NCCCc1ccccc1)n1nc(C)c2c(C)n(-c3ccccc3)nc2c1=O` (centres unmarked) to `O=C(CSc1ncnc2c1oc1ccccc12)OCc1ccccc1`, the “hERG current change (%, negative = inhibition) at 1uM” value rises from -9.75% to 10.5%.

Going from `COc1ccc(S(=O)(=O)N2CCOCC2)cc1NC(=O)CO/N=C/c1ccccc1OC(F)F` to `O=C(COC(=O)c1cccc(S(=O)(=O)N2CCc3ccccc32)c1)Nc1ncc(Cl)cc1Cl`, the “hERG current change (%, negative = inhibition) at 1uM” value rises from 4.29% to 4.59%.

First: Nn1c(SCC(=O)Nc2c(F)cc(F)cc2Br)nnc1C1CCCCC1
Second: Cc1ccc(Nc2nnc(SCC(=O)Nc3cccc(S(=O)(=O)N4CCCCC4)c3)s2)cc1
The “hERG current change (%, negative = inhibition) at 1uM” value of the first is lower: 11.5% for the first, 12% for the second.

Going from `C=CCn1c(SCc2c(F)cccc2Cl)nnc1-c1ccco1` to `N#Cc1c(C(F)(F)F)cc(-c2ccco2)nc1SCc1ccccn1`, the “hERG current change (%, negative = inhibition) at 1uM” value rises from 9.2% to 17.1%.

First: CC1CC(C)(C)NC(=S)N1CC(=O)N(C)Cc1ccccc1 (centres unmarked)
Second: CN(CCC#N)C(=O)CC1(Cc2ccccc2)CCOC(C)(C)C1 (centres unmarked)
The “hERG current change (%, negative = inhibition) at 1uM” value of the first is lower: -3.93% for the first, 6.25% for the second.

First: Fc1ccc(-c2cc(C(F)(F)F)nc(-n3cccn3)n2)cc1
Second: C(=C\c1nc(-c2ccncc2)no1)/c1ccccc1
The “hERG current change (%, negative = inhibition) at 1uM” value of the first is lower: 7.64% for the first, 9.45% for the second.

Compared with `CC1CCCc2sc3ncn(N)c(=N)c3c21` (centres unmarked), `Cc1cc(C)nc(N2CCC(C(=O)N3CCN(c4cc(Cl)ccc4C)CC3)CC2)n1` is lower in “hERG current change (%, negative = inhibition) at 1uM” value: 8.92% for the first, 5.63% for the second.

Going from `COc1ccccc1Nc1nn2c(=O)c3ccc(C(=O)N4CCCCC4)cc3nc2s1` to `O=C(N/N=C/c1ccccc1OC(F)F)c1cc(-c2ccncc2)nc2ccccc12`, the “hERG current change (%, negative = inhibition) at 1uM” value rises from 11.3% to 18.7%.

Compared with `COc1ccccc1C(=O)NC(=O)COC(=O)CCS(=O)(=O)c1ccc(C)cc1`, `COCCNC(=O)CN(C(=O)CCC(=O)Nc1nccs1)c1ccccc1OC` is higher in “hERG current change (%, negative = inhibition) at 1uM” value: 7.42% for the first, 13.2% for the second.

Going from `COc1cc(C(=O)NC(=S)Nc2ccc3c(c2)C(=O)N(C)C3=O)cc(OC)c1OC` to `COc1cc(N=C2C(=O)N3c4c(cccc42)C(C)=CC3(C)C)cc(OC)c1`, the “hERG current change (%, negative = inhibition) at 1uM” value rises from 10.2% to 13%.

First: O=C(CN1CCN(CC(=O)Nc2ccc(-c3ccccc3)cc2)CC1)Nc1ccc(F)cc1
Second: O=C(CC(c1ccccc1)c1ccccc1)Nc1ccncc1
The “hERG current change (%, negative = inhibition) at 1uM” value of the first is lower: -13.7% for the first, 6.4% for the second.

Going from `O=C(O)c1ccc(N/N=C/c2cccc(F)c2)cc1.O=S(=O)(O)O` to `Cc1ccc(NS(=O)(=O)c2cc(C(=O)Nc3cccc([N+](=O)[O-])c3)ccc2C)cc1`, the “hERG current change (%, negative = inhibition) at 1uM” value falls from 11.6% to 9.92%.

First: COC(=O)Nc1ccc(S(=O)(=O)N2CCC(C(=O)N3CCCC(C)C3)CC2)cc1 (centres unmarked)
Second: CCOC(=O)C1CCCCN1S(=O)(=O)c1ccc2c(c1)CC(C)N2C(=O)C1CCC1 (centres unmarked)
The “hERG current change (%, negative = inhibition) at 1uM” value of the first is higher: 41.1% for the first, 9.36% for the second.

First: Cn1cnc2c1c(=O)n(Cc1c(Cl)cccc1Cl)c(=O)n2C
Second: Cc1c(Cl)cccc1NC(=O)Cn1cc(C(F)(F)F)cc(Cl)c1=O
The “hERG current change (%, negative = inhibition) at 1uM” value of the first is higher: 5.21% for the first, 4.87% for the second.

First: Cc1ccc(N2C(=O)C(CC(=O)Nc3cccc(F)c3)N(C3CC3)C2=O)cc1 (centres unmarked)
Second: CC(CC(=O)Nc1ccc2c(c1)OCCO2)c1ccccc1 (centres unmarked)
The “hERG current change (%, negative = inhibition) at 1uM” value of the first is lower: 2.9% for the first, 20.9% for the second.

Compared with `Cc1cc(NC(=O)COC(=O)[C@@H](NS(=O)(=O)c2ccc(Br)cc2)C(C)C)no1`, `CCOC(=O)c1cc(S(=O)(=O)Nc2cccc(OC)c2)cn1C` is higher in “hERG current change (%, negative = inhibition) at 1uM” value: 6.51% for the first, 13.7% for the second.

First: COc1cccc(C=Nc2ccc(C)c(F)c2)c1O
Second: Cc1cc(NCc2ccccn2)ccc1Br
The “hERG current change (%, negative = inhibition) at 1uM” value of the first is higher: 6.06% for the first, 5.23% for the second.

Compared with `COCCCNC(=O)CCC(=O)NNc1nc2ccccc2c2nc(C)nn12`, `COCCNC(=O)c1c(N)n(CCCn2ccnc2)c2nc3ccccc3nc12` is higher in “hERG current change (%, negative = inhibition) at 1uM” value: 16.2% for the first, 16.8% for the second.

First: Cc1ccc(-n2c(O)c(C=NCCN3CCNCC3)c(=O)[nH]c2=S)cc1
Second: CCn1c(O)c(N=NC(=O)Cc2csc(N3CCOCC3)n2)c2ccccc21
The “hERG current change (%, negative = inhibition) at 1uM” value of the first is higher: 13.3% for the first, 3.37% for the second.

First: Cc1ccc(-c2c(C(=O)N/N=C/c3ccoc3)nnn2-c2nonc2N)cc1
Second: O=C(N/N=C/c1ccc(Sc2ccccn2)o1)c1cc2ccccc2cc1O
The “hERG current change (%, negative = inhibition) at 1uM” value of the first is higher: 13% for the first, 11% for the second.

First: COc1ccc(N(CC(=O)NC2CC2)S(=O)(=O)c2ccccc2)cc1
Second: Cn1nnnc1SCCNS(=O)(=O)c1ccccc1
The “hERG current change (%, negative = inhibition) at 1uM” value of the first is higher: 16% for the first, 6.09% for the second.

First: COc1ccc([C@H]2[C@H](C(=O)OC(C)(C)C)N3N=Cc4ccccc4C3C23C(=O)c2ccccc2C3=O)cc1OC (some centres unmarked)
Second: CCCSc1ccc([C@@H]2[C@@H]3C(=O)N(C)C(=O)[C@@H]3[C@]3(C(=O)OC)CCCCN23)cc1OC.O=C(O)C(F)(F)F
The “hERG current change (%, negative = inhibition) at 1uM” value of the first is higher: 8.39% for the first, -2.11% for the second.

First: CCOC(=O)C1(CC2CCCCO2)CCN(Cc2ccc(OC)cc2F)CC1 (centres unmarked)
Second: O=S(=O)(NNC(=S)NCC1CCCO1)c1cc(Cl)ccc1Cl (centres unmarked)
The “hERG current change (%, negative = inhibition) at 1uM” value of the first is lower: -19.8% for the first, 10.8% for the second.

Compared with `COC(=O)CSc1nnc(-c2ccncc2)o1`, `CCOC(=O)c1cnc(-c2ccccc2)nc1N(C)C` is lower in “hERG current change (%, negative = inhibition) at 1uM” value: -3% for the first, -5.06% for the second.

Going from `CC12CCC(C(=O)Nc3ncc([N+](=O)[O-])s3)(OC1=O)C2(C)C` (centres unmarked) to `CCN(CC)CCCNC(=O)c1cc(-c2cccc(Cl)c2)on1`, the “hERG current change (%, negative = inhibition) at 1uM” value falls from 0.895% to -36.5%.

First: CCCOc1ccc(/C(O)=C2/C(=O)C(=O)N(CCN(C)C)C2c2ccco2)cc1 (centres unmarked)
Second: O=C(NC(Cc1ccccc1)C(=O)O)/C(=C\c1ccco1)NC(=O)c1ccco1 (centres unmarked)
The “hERG current change (%, negative = inhibition) at 1uM” value of the first is lower: 3.23% for the first, 5.94% for the second.

Compared with `CCCNC(=O)NC1C(NC(=O)NCCC)N(C)C(=O)N1C` (centres unmarked), `CN1CC(=O)N(C)c2nc(Br)n(C)c2C1=O` is lower in “hERG current change (%, negative = inhibition) at 1uM” value: 5.39% for the first, -4.07% for the second.

In the case of `O=C(NCc1cccc(Cl)c1)C1CCC(=O)N(C2CC2)C1` (centres unmarked), the “hERG current change (%, negative = inhibition) at 1uM” value is reported as 12.3%.
